Laboratory results reported in PubChem BioAssay AID1159614 (National Center for Advancing Translational Sciences (NCATS), 2016).
Screen size: about 45,000 compounds; about 65 (0.1%) were called active. The call rests on the fitted dose curve; in most records, active means well fitted activation curve with a large enough effect; inconclusive means small, poorly fitted or top-dose-only effect; inactive means no such curve, though single readings can be large or run the other way. This is one part of the list.

These molecules were tested against Galactocerebrosidase (Homo sapiens) (UniProt P54803) (assay: A Novel Cell-Based Assay to Identify Small Molecules for B -Galactocerebrosidase). Conditions: 145M-Twi-hGALC-G270D cells (Twitcher mouse brain line with human GALC G270D), HMU-beta-Gal fluorescence, 48 h; series mostly up to 57.5 µM; activation: at the top concentration.
How it was run: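 Brain-derived Twitcher mouse 145M-Twi cells stably expressing human GALC-G270D or wild-type GALC, treated live, then residual GALC activity read by fluorescence of HMU-b-Gal substrate (0.1 mM final) in citrate-phosphate buffer pH 5.2 with sodium taurocholate. Signal increase indicates enhancement.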
Further: 0% is about no effect; nearly all actives have a fitted effect of over 65% in size.

Chain of UniProt P54803 (P54803 whole entry, looked up): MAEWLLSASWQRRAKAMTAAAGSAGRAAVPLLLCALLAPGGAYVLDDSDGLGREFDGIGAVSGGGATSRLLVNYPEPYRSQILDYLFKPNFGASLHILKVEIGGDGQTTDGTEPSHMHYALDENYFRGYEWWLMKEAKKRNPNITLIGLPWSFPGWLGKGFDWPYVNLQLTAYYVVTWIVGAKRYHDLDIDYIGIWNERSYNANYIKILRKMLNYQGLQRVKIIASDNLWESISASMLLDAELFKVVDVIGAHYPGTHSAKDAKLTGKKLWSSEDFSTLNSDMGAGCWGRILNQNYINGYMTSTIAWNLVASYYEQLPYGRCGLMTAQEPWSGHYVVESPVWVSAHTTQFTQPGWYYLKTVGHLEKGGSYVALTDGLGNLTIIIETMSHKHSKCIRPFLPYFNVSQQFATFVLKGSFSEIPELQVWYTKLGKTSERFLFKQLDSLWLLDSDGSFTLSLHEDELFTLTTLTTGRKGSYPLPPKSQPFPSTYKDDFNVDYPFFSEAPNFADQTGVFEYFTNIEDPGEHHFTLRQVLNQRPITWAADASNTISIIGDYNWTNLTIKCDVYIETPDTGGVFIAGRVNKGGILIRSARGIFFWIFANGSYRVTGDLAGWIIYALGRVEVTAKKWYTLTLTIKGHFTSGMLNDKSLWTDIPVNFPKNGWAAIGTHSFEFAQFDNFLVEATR

activation, inactive:
Cc1ccc(Cl)cc1NC(=O)c1csnn1 -13%, Cc1cc(NC(=O)c2ccc(F)cc2)ccc1-c1cc2ccccc2oc1=O -16.6%, CC(=O)OC1=C(C(C)=O)N(Cc2ccccc2)S(=O)(=O)c2ccccc21 -7.78%, CCOC(=O)c1ccc(N2C(=O)c3[nH]nc(-c4ccc(C)cc4)c3C2c2ccc(O)cc2)cc1 (centres undefined) -3.33%, Cc1ccccc1CSc1ncc(Cl)c(C(=O)NCc2ccccc2)n1 1.99%, CCC(=O)N1CCc2cc(Br)cc(S(=O)(=O)CCC(=O)Nc3ccc(CC)cc3)c21 -5.26%, CCN(CC)S(=O)(=O)c1ccc(NC(=O)c2nn(C)c3c2CSc2ccccc2-3)cc1 -8.81%, CCOc1ccc(Nc2nc(N)c(C(=O)c3ccccc3Cl)s2)cc1 -18.2%, Cc1cccc(CC(=O)NC2CC(=O)N(c3ccc4c(c3)OCCO4)C2)c1 (centres undefined) -15.9%, Fc1ccc(Nc2nc(SCc3cccc(F)c3)nc3ccccc23)cc1 -8.75%, Cc1ccccc1CNC(=O)Cn1c(C)c2cnn(-c3ccccc3)c(=O)c2c1C 1.51%, CCOC(=O)c1sc(N2C(=O)c3oc4ccccc4c(=O)c3C2c2ccc(C(C)(C)C)cc2)nc1C (centres undefined) -6.97%, CCCCOc1ccc(C(=O)Nc2cc(-c3ccc(C)cc3)no2)cc1 -5.38%, CCOC(=O)COc1ccc(/C=C(\C#N)c2nc3ccc(C)cc3[nH]2)cc1OC -14.3%, Cc1ccc2c(CC(=O)Nc3cccc(C(F)(F)F)c3)coc2c1 -18%, CCc1nc2ccc(C(=O)NCc3ccc(OC)c(OC)c3)cc2nc1CC -11.6%, CC1(C)Cc2c(c(N3CCOCC3)nc3sc(C(=O)Nc4ccc(Cl)cc4)c(N)c23)CO1 -17%, Cc1cccc(NC(=O)CSc2nc(-c3cccc(C)c3)nc3c2Cc2c(CO)cnc(C)c2O3)c1 -11.8%, Cc1ccc2c(c1)-c1onc(C(=O)N(C)c3cccc(C(F)(F)F)c3)c1CO2 19%, Cc1ccc(CNC(=O)c2ccc3c(c2)CCN3S(=O)(=O)c2ccccc2)cc1 -10.6%, Cc1cccn2c3c(c(=O)nc12)C(c1cccc(F)c1)CC(=O)N3 (centres undefined) -4.48%, Cc1oc2ncn(CC(C)C)c(=O)c2c1C(=O)NCCc1ccc(Cl)cc1 -9.63%, CCC(=O)N1c2ccccc2CC1C(=O)N1CCN(c2cccc(OC)c2)CC1 (centres undefined) -24.3%, COc1ccc(Cn2c(C(=O)O)c(CNC3CCCC3)c3ccc(C)cc32)cc1 -4.86%, COc1ccc(CCNC(=O)c2csc3c2CCCCC3)c(OC)c1 17%, Cc1ccc(N(C)C(=O)CC(C)S(=O)(=O)c2ccc3c(c2)NC(=O)CO3)cc1 (centres undefined) -1.44%, CCc1ccc(NC(=O)Cn2ccn(-c3ccc(OC)cc3)c(=O)c2=O)cc1 -2.26%, Cc1ccc(C)c(NC(=O)CSc2c(C)cnc3c2c(=O)n(C)c(=O)n3C)c1 -5.56%, N[C@@H](Cc1c[nH]c2ccc(O)cc12)C(=O)O -9.41%, CN1C[C@@H]2C[C@H]1CN2c1cc2c(cc1F)c(=O)c(C(=O)O)cn2C1CC1 -12.4% [at 23.8 µM], CCOc1ccc(OCC)c(NS(=O)(=O)c2c(C)[nH]c(=O)[nH]c2=O)c1 -11.5%, O=C(Cn1cnc2nc3c(cc2c1=O)CCCC3)N1CCN(c2cccc(C(F)(F)F)c2)CC1 -28.3%, Cc1ccc(C)c(NC(=O)Cn2ncc3c([nH]c4ccccc43)c2=O)c1 6.84%, CCOc1ccc(NC(=O)CSc2nc(-c3cccc(Cl)c3)nc3c2Cc2c(CO)cnc(C)c2O3)cc1 -5.59%, Cc1cccc(NC(=O)CC2Nc3cccc4cccc(c34)NC2=O)c1 (centres undefined) -26%, COC(=O)c1cc2oc(C)cc2n1Cc1cc(C)ccc1C -11.6%, CN(c1ncnc2c1c(-c1ccccc1)cn2-c1cccc(Cl)c1)C1CCCCC1 2.34%, Cc1ccc(-c2nnn3c2nc(NCCc2ccccc2)c2ccccc23)cc1 -7.41%, COc1cccc(NC(=O)CCc2nc(-c3ccc(C(C)(C)C)cc3)no2)c1 -13.3%, COCCN(Cc1ccco1)C(=O)Cn1ncc2c([nH]c3ccccc32)c1=O -0.592%, Cc1cc2c(cc1S(=O)(=O)CCC(=O)N(C)C1CCCCC1)OCC(=O)N2 -1.46%, Cc1c(Cl)cccc1NC(=O)N1CCC(CN2CCOCC2)CC1 -17.5%, OCc1ccc(Cl)cc1Cl -11.3%, Cc1ccc(C)c(C(=O)CSc2nc(-c3ccccc3)nc3c2CCCC3)c1 -7.62%, CCc1ccc(CN(Cc2ccco2)C(=O)COc2ccccc2Cl)cc1 -32.3%, Cc1cccc(-n2c(=O)c3c(c4cc(C)ccc4n3C)n(C)c2=O)c1 -2.37%, NC(=O)CN1C(=O)C2(SCC(=O)N2c2cccc(F)c2)c2ccccc21 (centres undefined) -19.7%, COc1ccc(C2C(C(=O)Nc3ccc(C)cc3C)=C(C)Nc3nc(SC)nn32)cc1OC (centres undefined) -0.143%, CC(=O)OCc1cnc(C)c2oc(=O)c(C(=O)Nc3cc(F)ccc3C)cc12 -1.81%, O=C(c1ccc([N+](=O)[O-])cc1)N(Cc1ccco1)c1ccccn1 -25.3%, COc1ccc(NC(=O)C2CCN(S(=O)(=O)c3cn(C)cn3)CC2)cc1Cl -1.1%, CC(C)C(=O)Nc1nnc(S(=O)(=O)N(C)Cc2ccc(F)cc2)s1 -10.4%, CCOc1ccccc1NC(=O)C1CCCN(c2ncnc3onc(-c4ccc(F)cc4)c23)C1 (centres undefined) -9.21%, COc1ccccc1CNC(=O)c1ccc(-c2nc(CS(=O)c3ccc(C)cc3)c(C)o2)cc1 (centres undefined) -18.8%, COc1ccc(S(=O)(=O)Nc2ccc3c(c2)sc(=O)n3C)cc1Cl -34.4%, CCCCn1c(=O)c2oc3ccccc3c2n(Cc2ccc(OC)cc2)c1=O -0.323%, Cc1cc(C)cc(NC(=O)c2cn3c4c(ccc(Cl)c4c2=O)OC(C)C3)c1 (centres undefined) -5.3%, Cc1ccc(NC(=O)c2nnn(Cc3ccccc3)c2N)cc1C 10.4%, CCOC(=O)c1cc2c(=O)n3ccccc3nc2n(Cc2ccco2)c1=NC(=O)c1ccc(Br)cc1 -15.5%, O=C(CSc1oc(-c2ccccc2)nc1S(=O)(=O)c1ccc(Br)cc1)c1ccccc1 -6.32%, COc1ccc(NC(=O)c2ccco2)cc1NC(=O)COc1cccc(C)c1C -12%, CCc1ccc(NC(=O)CN(C)S(=O)(=O)c2ccc3c(c2)c(=O)n(C)c(=O)n3C)cc1 -6.34%, COc1ccc(C)cc1NC(=O)COc1cc(=O)n(C)c2ccccc12 -5.75%, Cc1ccccc1-c1nc(SCC(=O)NCc2ccc(F)cc2)c2c(=O)n(C)c(=O)n(C)c2n1 0.86%
